Measured values taken from the supplement of paper PMC11348887.
Structures can show the parent of a compound that is named as a salt. Some of the results follow. No stated cut-off is given here; in the data, active = -2 or less and inactive = the rest. Most values come without repeats; read them as rough.

tested on: hPSC-derived cortical neurons (WA09); assay: nuclei number (viability) z-score; higher = more surviving cells; details: 5 µM; treatment: days 7-14 after plating, readout day 21
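Further: nuclei counted from DAPI counterstain by automated high-content image analysis, four fields per well at ×20 in 384-well plates, with sequential b-score then z-score normalization.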

Structure (SMILES) | nuclei number (z-score)
CCOC(CN1CCN(CC(C)C(=O)c2ccccc2)CC1)c1ccccc1 (stereo not given) [Eprazinone 2HCl] | inactive: -0.135
OCC(CO)N[C@H]1C[C@](O)(CO)[C@@H](O)[C@H](O)[C@H]1O [Voglibose] | inactive: 10.7
C=CCNc1ncnc2ccc(Br)cc12 | inactive: 1.32
COC(=O)/C=C/C(=O)OC [Dimethyl Fumarate] | inactive: 0.161
C[N+](C)(C)CCOC(N)=O [Carbachol] | inactive: 0.957
CC(C)c1cc(C(C)C)c(CC(=O)NS(=O)(=O)Oc2c(C(C)C)cccc2C(C)C)c(C(C)C)c1 [Avasimibe] | inactive: 3.46
O=C(NNc1nc2cc(F)ccc2n2cccc12)c1cnccn1 | active: -2.74
O=C(NC(Cc1cc(=O)[nH]c2ccccc12)C(=O)O)c1ccc(Cl)cc1 (stereo not given) [Rebamipide] | inactive: 0.252
COc1ccc2[nH]cc(/C=C3\C(=O)Nc4ccc(NC(=O)CCN5CCCCC5)cc43)c2c1 | inactive: -0.714
CCOC(=O)c1ccc(NC2CCCCC2)c(N)c1 [Ferrostatin-1 (Fer-1)] | inactive: 0.482
O=C1c2c(O)ccc(O)c2C(=O)c2c(NCCNCCO)ccc(NCCNCCO)c21 [Mitoxantrone HCl] | active: -5
O=C1c2c(O)ccc(O)c2C(=O)c2c(NCCNCCO)ccc(NCCNCCO)c21 [Mitoxantrone] | active: -5.14
CC1(C)CC[C@]2(NC(=O)C(C)(F)F)CC[C@]3(C)[C@H](C(=O)C=C4[C@@]5(C)C=C(C#N)C(=O)C(C)(C)[C@@H]5CC[C@]43C)[C@@H]2C1 [Omaveloxolone (RTA-408)] | active: -2.46
CN1CCN(Cc2ccc(-c3cnc4[nH]cc(-c5ccc6[nH]ccc6c5)c4c3)cc2)CC1 | active: -5.5
C[C@H](CCC(=O)O)[C@H]1CC[C@H]2[C@@H]3C(=O)C[C@@H]4CC(=O)CC[C@]4(C)[C@H]3CC(=O)[C@]12C [Dehydrocholic acid] | inactive: 0.678
CCOC(=O)C1=C(C)NC(C)=C(C(=O)OC)C1c1cccc(Cl)c1Cl (stereo not given) [Felodipine] | inactive: -1.27
CCCCc1ncc(/C=C(\Cc2cccs2)C(=O)O)n1Cc1ccc(C(=O)O)cc1 [Eprosartan Mesylate] | inactive: -0.997
CN1CCCN(C(=O)c2cccc(-c3ccc(/C=C4/C(=O)Nc5ccc(Cl)cc54)o3)c2)CC1 | active: -6.62
CCCCCCCCOc1ccccc1C(=O)Nc1ccc(C(=O)OCC[N+](C)(CC)CC)cc1 [Otilonium Bromide] | active: -6.08
CN1CCN2c3ccccc3Cc3ccccc3C2C1 (stereo not given) [Mianserin HCl] | inactive: 0.715
